According to PubChem BioAssay AID743262 (National Center for Advancing Translational Sciences (NCATS), 2014):
Hit rate of the full screen: of about 1,300 compounds, about 25 (2%) were called active. Inconclusive results (about 9%) are left out. Calls come from the whole dose curve; as a rule, active = well fitted activation curve with a large enough effect; inconclusive = small, poorly fitted or top-dose-only effect; inactive = flat fitted curve, though single readings scatter. This is one part of the list.

What follows are compounds tested against Glucagon-like peptide 1 receptor (Homo sapiens) (UniProt P43220) (assay: qHTS of GLP-1 Receptor Agonists: Hit Validation). Conditions: HEK293 GLP-1R, cAMP-response luciferase, 4-6 h; series mostly up to 46.1 µM; activation: at the top concentration.
Text: The overall goal of this project was to develop a novel assay for discovering small molecule ligands for class B1 G protein-coupled receptors (GPCRs). Very few agonists (or inverse agonists) with generally weak activity for this entire group of physiologically important receptors are known to date. To establish proof-of-principle that this critical bottleneck can be overcome with a suitable screening approach, our studies focused on the class B1 receptor for glucagon-like peptide-1 (GLP-1R), a potential therapeutic target for diabetes and neurodegenerative disease. The assay was developed in a "mix and measure" format using a cell-based functional readout. Toward this goal, stably transfected HEK293 cell clones were established that co-express (i) a cAMP-responsive luciferase reporter gene, and (ii) GLP-1Rs that upon ligand interaction either stimulate (agonists) or inhibit (inverse agonists) luciferase activity. In different cell lines to be used for screening, expressed GLP-1Rs are specifically optimized for high sensitivity detection of either weak agonists (hypersensitive receptor) or inverse agonists (constitutively active receptor mutant). In addition, control cell lines were developed that express either the cAMP-responsive reporter gene without recombinant GLP-1Rs (enabling initial exclusion of GLP-1R independent effects of candidate probes), or the reporter gene together with wild type GLP-1Rs (for confirmation of probe activity at this receptor), or the reporter gene in combination with the constitutively active orphan receptor GPR119 (enabling initial exclusion of GLP-1R independent inhibitory effects of candidate inverse agonists). To that end, this assay was optimized for 1536-well format and screened against the MLSMR. NIH Molecular Libraries Probe Production Network [MLPCN] NIH Chemical Genomics Center [NCGC] Grant: NS064851 PI Name: Martin Beinborn, Tufts Medical Center
In a white solid 1536-well plate, 6 uL of cells are dispensed in DMEM without phenol red, 10% Nu serum, and 1% pen-strep medium. The plates are then incubated for 12 hours at 37 deg C at 5% CO2 before 23 nL of compounds are added. After a 4-6 hr incubation at37 deg C and 5% CO2, 3 uL of detection reagent are added and after a 12 min incubation at RT, a luminescent read is obtained on the ViewLux.
Potency is the fitted concentration of half-maximal effect.
Throughout, for activation: % of control where 0% means no effect.

Sequence of UniProt P43220 (P43220 whole entry, looked up): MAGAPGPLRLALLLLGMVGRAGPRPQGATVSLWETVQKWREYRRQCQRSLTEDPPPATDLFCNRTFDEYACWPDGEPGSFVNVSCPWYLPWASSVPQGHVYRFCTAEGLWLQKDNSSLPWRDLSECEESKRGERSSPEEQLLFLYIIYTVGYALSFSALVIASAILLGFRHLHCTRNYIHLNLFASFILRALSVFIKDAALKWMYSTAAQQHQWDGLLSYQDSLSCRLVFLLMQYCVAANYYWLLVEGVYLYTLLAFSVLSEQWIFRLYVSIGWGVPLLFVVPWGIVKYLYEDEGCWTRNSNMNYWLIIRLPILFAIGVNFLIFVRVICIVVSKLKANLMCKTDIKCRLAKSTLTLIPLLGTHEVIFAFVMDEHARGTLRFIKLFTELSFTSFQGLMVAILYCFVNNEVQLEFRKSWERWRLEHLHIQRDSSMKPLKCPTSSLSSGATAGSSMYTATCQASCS

Compound	activation	Potency
O=S(=O)(Nc1ccc(-c2ccc3nncn3n2)cc1)c1cccc(F)c1	inactive: 29.4%	–
COc1cc2c(cc1OC)-c1cc(NC3CCCC3)nc(=O)n1CC2	inactive: 27%	–
COC(=O)c1oc2ccc(Br)cc2c1-n1cccc1	inactive: -0.591%	–
CCCOc1ccc(S(=O)(=O)NCCN2CCOCC2)c2ccccc12	inactive: 0.326%	–
Cc1ccc(/C=C/C(=O)N2CCc3ccccc3C2)cc1	inactive: 1.91%	–
Cc1ccnc(NC(=O)C23CC4CC(CC(C4)C2)C3)c1	inactive: -0.29%	–
CCCCN=C1NN=C(c2cccc([N+](=O)[O-])c2)CS1	inactive: 4.33%	–
Nc1nc(SCc2ccccc2)cc(SCc2ccccc2)n1	inactive: 13.2%	–
CN(C)S(=O)(=O)c1ccc(C(=O)Nc2ccc(OCC(=O)N3CCOCC3)cc2)cc1	inactive: -0.668%	–
COc1cc2c(cc1OC)C1=C(C#N)CCC(=NC(=O)c3ccc(Cl)cc3)N1CC2	inactive: 14.6%	–
CCOC(=O)c1c(NC(=O)CNCCO)sc(C)c1C	inactive: 2.11%	–
COc1ccc(CNC(C)C(=O)Nc2ccc3ccccc3c2)cc1OC (configuration not stated)	inactive: 0.262%	–
O=C(c1ccco1)N1N=C(c2ccc(Br)cc2)CC1(O)C(F)(F)F (configuration not stated)	inactive: 6.22%	–
O=c1c2c3c(sc2nc2n1CCC2)CCCCC3	inactive: -0.423%	–
COc1ccc(C2=Nn3c(nnc3-c3ccccc3)SC2)cc1OC	inactive: 19.1%	–
COc1ccc(CSc2nnc3[nH]c(=O)cc(N)n23)cc1	inactive: 2.2%	–
CCCc1nc(Nc2nc3ccccc3o2)nc(C)c1C(=O)OCC	inactive: -0.429%	–
C=C(C)CSc1nc2c(c(=O)[nH]c(=O)n2C)n1Cc1ccccc1	inactive: 6.81%	–
COc1ccc(C2=Nn3c(nnc3-c3ccccc3Cl)SC2)cc1OC1CCOC1 (configuration not stated)	–	active: 13 µM
COc1ccc(CNC(=O)CN2CCC(NC(=O)c3ccccc3C)CC2)cc1	inactive: 0.0876%	–
COC(=O)c1ccc2c(=O)[nH]c(COC(=O)c3[nH]c(C)c(C(C)=O)c3C)nc2c1	inactive: -0.418%	–
CC(C)(C)c1cc2cccnc2n1Cc1ccccc1	inactive: -0.512%	–
COc1cc(-c2noc(C)c2/C=C/c2ccc(N)cc2)cc(OC)c1OC	inactive: 23.7%	–

Compound	activation	Potency
c1cc2c(cc1C1=Nn3c(nnc3C3CCCCC3)SC1)OCO2	inactive: 18.3%	–
COc1ccc(NC(=O)CSc2ccc(-c3cccs3)nn2)c(OC)c1	inactive: 11.2%	–
CC(=O)COc1ccc2c3c(c(=O)oc2c1C)CCCCC3	inactive: 18.1%	–
c1ccc(-c2cc(N3CCCCC3)ncn2)cc1	inactive: 0.372%	–
CN(CCOc1ccccc1)CC(=O)Nc1ccc(Cl)cc1[N+](=O)[O-]	inactive: 8.53%	–
CC1COC(Cn2c3ccccc3c3ccccc32)O1 (configuration not stated)	inactive: 12.7%	–
CC(N=Cc1nc(-c2ccccc2)oc1O)c1ccccc1 (configuration not stated)	inactive: 0.223%	–
Cc1nc(C)c(-c2csc(Nc3ccc(O)cc3C)n2)s1	inactive: 0.131%	–
C=CCOc1nc2c(c(=O)n(C)c(=O)n2C)n1Cc1ccccc1Cl	inactive: 4.97%	–
Cc1cccc(-c2c3c(=O)n(C)c(=O)n(C)c3cn2C(C)C)c1	inactive: 17.2%	–
COc1cc2c(cc1OC)/C(=C/C(=O)c1ccccc1)NCC2	inactive: 26.6%	–
COC(=O)c1cc(NC2c3ncccc3C(=O)N2Cc2ccccc2)cc(C(=O)OC)c1 (configuration not stated)	inactive: -0.366%	–
CCCc1nc(SCC(=O)c2ccc(OC)cc2)c2ccccc2n1	inactive: 6.34%	–
COc1ccc2c(CN(C)Cc3ccccc3)cc(=O)oc2c1	inactive: 1.91%	–
COCCCC/C(=N\OCCN)c1ccc(C(F)(F)F)cc1	inactive: 24.7%	–
COc1ccc(/C=N/Nc2snc(SC)c2C#N)cc1OC	inactive: 13.7%	–
CCOC(=O)C1CCN(c2nc3c(C)cccn3c(=O)c2/C=C(\C#N)S(=O)(=O)c2ccccc2)CC1	inactive: 6.54%	–
O=C(CNC1CCCC1)Nc1ccc(N2CCCCCC2)cc1	inactive: 3.15%	–
COc1cc2c(cc1OC)-c1cc(OCCN3CCOCC3)nc(=O)n1CC2	inactive: 11.2%	–
O=C(C1CCCN(Cc2ccccc2)C1)N1CCCCC1 (configuration not stated)	inactive: -0.604%	–
COC(=O)C1=C(C)NC2=C(C(=O)CCC2)C1c1ccc(-c2ccsc2C(=O)OC)o1 (configuration not stated)	inactive: 10.7%	–
Cc1nc(N2CCOCC2)c2cc(-c3ccccc3)sc2n1	–	active: 8.2 µM
O=C(c1ccccc1-c1nc(-c2ccc(Cl)cc2)no1)N1CCCC1	inactive: -0.765%	–

Compound	activation	Potency
Cc1ccc(CNCCCSc2ncccn2)cc1	inactive: 17.6%	–
CC(=O)Nc1ccc(CC(=O)NCCC(c2ccccc2)c2ccccc2)cc1	inactive: -0.669%	–
COc1ccc(Cc2noc(-c3ccc(OC)c(OC)c3)n2)cc1OC	inactive: 7.14%	–
Cc1ccccc1Nc1nc(N)nc(COC(=O)c2cccc(S(=O)(=O)N(C)C)c2)n1	inactive: 7.48%	–
COc1cc(/C=N/NC(=O)c2cc(-c3ccccc3Cl)nc3ccccc23)cc(OC)c1O	inactive: 10.5%	–
CN(C)C=Nc1c(I)cc(I)c(CCC(=O)O)c1I	inactive: 0.326%	–
COC(=O)CCSCC(=O)N1N=C(c2ccc(OC)cc2)CC1c1cccc(OC)c1OC (configuration not stated)	inactive: 3.02%	–
CCn1c2ccc(F)cc2c2nnc(SCCN3CCOCC3)nc21	inactive: 9.39%	–
CC(C)(C)Nc1nc(Cl)nc(NCc2ccccc2)n1	inactive: -0.349%	–
COc1cccc(Cn2c(N)c(C#N)c3nc4ccccc4nc32)c1OC	inactive: 7.89%	–
Nc1ccc(S(=O)(=O)NC(=O)c2ccccc2)cc1	inactive: -0.525%	–
O=C(O)Cn1c(C(=O)Nc2nc(-c3ccccc3Cl)cs2)cc2ccccc21	inactive: -0.419%	–
COc1ccccc1NC(=O)C(C)OC(=O)CCCc1c[nH]c2ccccc12 (configuration not stated)	inactive: 1.94%	–
Cc1ccc(NC(=O)COc2ccc(CCO)cc2-n2nc3ccccc3n2)cc1C	inactive: 27.2%	–
COc1ccc(Cn2c(SCC#N)nc3ccc(N4CCOCC4)cc3c2=O)cc1	inactive: 19.6%	–
Cn1cncc1C#Cc1c(-c2ccsc2)sc2ccccc12	inactive: 12.7%	–
CCOC(=O)c1c(NC(=O)Cn2cnc([N+](=O)[O-])n2)sc(C)c1C	inactive: -0.609%	–
COCCn1c(SCC(=O)Nc2cc(OC)ccc2OC)nc2c(c1=O)SC(C)C2 (configuration not stated)	inactive: 2.96%	–
CCNc1nn2ccccc2c1/C=C(\C#N)C(=O)OCC	inactive: 3.68%	–
Cc1[nH]c2ccccc2c1/C=C/C(=O)c1ccncc1	inactive: 3.27%	–
CCOC(=O)c1c(NC(=O)CN2C(=O)NC3(CCCCC3C)C2=O)sc(C)c1CC (configuration not stated)	inactive: 7.96%	–
Cc1cc(Cl)c2oc(C(=O)N(CCO)Cc3ccccc3)c(C)c2c1	inactive: 19.2%	–
N#Cc1c(Nc2ccccc2Cl)s[nH]c1=O	inactive: -0.676%	–

Compound	activation	Potency
F[B-](F)(F)COCc1ccccc1Br	inactive: 15.4%	–
CCOc1ccc(OCC)c(NC(=O)CSc2nc3cccnc3n2C)c1	inactive: 3.91%	–
COc1ccc(-c2coc3c(C(=O)NCc4ccc(OC)c(OC)c4)cccc23)c(C)c1	inactive: 11.3%	–
Nc1ccc(Oc2cc(N)cc(Oc3ccccc3)c2)cc1	inactive: 1.49%	–
CCn1nc(NC(=O)c2cccnc2)c2cc3ccccc3nc21	–	active: 20.6 µM
Cc1cccc(-c2nc(C#N)c(N3CCCCCC3)o2)c1	inactive: 10.5%	–
COc1cc2c(cc1OC)CN(C(=O)c1ccc(OC)c(S(=O)(=O)N3CCCC3)c1)CC2	inactive: 4.14%	–
N#Cc1c(-c2ccco2)cc(C2CC2)nc1N	inactive: 8.33%	–
COc1ccc(C(=O)Cc2ccccc2)cc1OC	inactive: 1.93%	–
O=c1c2cc(Br)ccc2nc2n1CCCCC2	inactive: 1.85%	–
O=C1C2CC=CCC2C(=O)N1c1ccc(NCCc2ccc(O)cc2)c([N+](=O)[O-])c1 (configuration not stated)	inactive: 9.29%	–
CN1CCN(CCCNC(=O)c2ccc(/C=C3\Oc4ccccc4N(Cc4ccccc4F)C3=O)cc2)CC1	inactive: 22.9%	–
COc1cc(NC(=O)c2ccccc2)c(OC)cc1NC(=O)CN1CCCCC1	inactive: 2.27%	–
C/C(=N/OC(=O)C1CC12CCC2)c1ccc(Br)cc1 (configuration not stated)	inactive: -0.501%	–
CCOc1ccc(CCNC(=O)COC(=O)COc2ccc(C(C)=O)cc2)cc1OCC	inactive: -0.493%	–
Oc1ccc(NCc2ccccc2OCc2ccccc2F)cc1	inactive: 3.23%	–
COc1ccc(NC(=O)C2(C)Cc3c(-c4cccc(C(F)(F)F)c4)ccnc3O2)cn1 (configuration not stated)	inactive: 6.6%	–
CCSc1cc(C)nc2c(-c3ccccc3)c(C)nn12	inactive: 4.39%	–
CCOc1ccccc1COC(=O)c1cccc(-n2cnnn2)c1	inactive: 4.07%	–
COc1ccc2nc(SC(C(=O)c3ccccc3)c3ccccc3)nc(C)c2c1 (configuration not stated)	inactive: 8.42%	–
Cc1ccc2oc(NC(=O)N3CCOCC3)cc(=O)c2c1	inactive: 2.38%	–
COc1ccc(-c2c(C)nn3c(N)c(C#N)cnc23)cc1OC	inactive: 12.2%	–
O=C(OCc1cccc(Cl)c1)c1cc([N+](=O)[O-])ccc1N1CCOCC1	inactive: 8.42%	–

Compound	activation	Potency
CC(=O)c1oc2ccccc2c1NC(=O)CN1CCCCC1	inactive: 2.43%	–
COc1cc(NC(=O)C2CC(=O)NC3=C2C(=O)CCC3)c(OC)cc1Cl (configuration not stated)	inactive: 2.45%	–
CCOC(=O)c1cc(-c2ccccc2)nn1Cc1cc(C)no1	inactive: 0.573%	–
COc1ccc(NC(C)=O)cc1S(=O)(=O)Nc1ccc2c(c1)OCCO2	inactive: -0.925%	–
CCOC(=O)/C(=C\C=C1/Sc2ccccc2N1CC)C(C)=O	inactive: 24.1%	–
Cc1ccc(CNC(=O)CN(C)S(=O)(=O)c2cccs2)cc1	inactive: -0.967%	–
COc1ccc(CNC(=O)c2cccc3c(-c4cnn(C)c4)coc23)cc1OC	inactive: 18.7%	–
COc1ccc(/C=N/n2c(=S)n(C)c3ccccc32)cc1OC	inactive: 14.7%	–
CCOc1ccc(C(C)=O)cc1COC(=O)CCc1cc(OC)c(OC)c(OC)c1	inactive: 1.66%	–
CCCOc1ccccc1/C=C1\SC(N2CCCCC2)=NC1=O	inactive: 6.39%	–
Cc1ccccc1Nc1nc(N)nc(CN(C)Cc2ccccc2Cl)n1	inactive: 3.15%	–
COc1ccc(C2=Nn3c(nnc3-c3ccccn3)SC2)cc1OC	inactive: 29.2%	–
Cc1ccccc1Nc1c(-c2ccc(N3CCOCC3)cc2)nc2cnccn12	inactive: 3.07%	–
O=C(c1cc2c(s1)CCCCC2)N1CCN(c2ncccn2)CC1	inactive: 0.382%	–
COc1cc(O)c(CCC(=O)c2cc(OC)c(OC)c(OC)c2)c(OC)c1	inactive: 4.11%	–
COc1ccc(/C=N/NC(=O)C(C)n2cnc3ccccc3c2=O)cc1OC (configuration not stated)	inactive: 10%	–
COc1ccc(OC)c(Nc2nc(-c3sc(C)nc3C)cs2)c1	inactive: 21.7%	–
CCOC(=O)c1c(C)c(C(=O)N2CCCCCC2)c(C)n1C	inactive: 2.73%	–
C=CCSc1nc2c(c(=O)[nH]c(=O)n2C)n1CC	inactive: 6.88%	–
CCOC(=O)C1CCN(C(=O)c2cc3c(-c4ccc(OC)c(OC)c4)nn(C)c3s2)CC1	inactive: 21.4%	–
